Activity change, negative = inhibition data for 29 compounds are collected here from PubChem BioAssay AID1745853 (National Center for Advancing Translational Sciences (NCATS), 2022).

This is one part of the list. Further columns of the screen follow, without active or inactive calls. Numbered stars: 1 amine (or outer) side, 2 acyl side, 3 side chain; on linkers, the order of the positions; unused ones are H or OH. Square brackets hold non-standard residues; d marks the D form. Peptide text beside a SMILES is read from it. X5 = CC(C)=CCc1cc(C(O)C(N[*:1])C(=O)[*:2])ccc1O

Assay in all cases: Primary Screen for Target Class Profiling of Small Molecule Inhibitors of Methyltransferases
In test [1] the target is Glycine N-methyltransferase (Homo sapiens) (UniProt Q14749). The conditions noted are these: purified enzyme, MTase-Glo SAH luminescence; measured here: GNMT inhibition; at 40 µM; stronger effect = lower value. In outline: (§1)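 Each enzyme was assayed with SAM and its substrate. SAH formation detected by MTase-Glo luminescence; single-point 40 uM screen[…].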
For test [2], the target named is Guanidinoacetate N-methyltransferase (Homo sapiens) (UniProt Q14353). The following applies: purified enzyme, MTase-Glo SAH luminescence; measured here: GAMT inhibition; at 40 µM; stronger effect = lower value. In outline:
as §1

The target of test [3] is Histamine N-methyltransferase (Homo sapiens) (UniProt P50135). The conditions noted are these: purified enzyme, MTase-Glo SAH luminescence; measured here: HNMT inhibition; at 40 µM; stronger effect = lower value. In outline: as §1
Test [4] deals with Nicotinamide N-methyltransferase (Homo sapiens) (UniProt P40261). The following applies: purified enzyme, MTase-Glo SAH luminescence; measured here: NNMT inhibition; at 40 µM; stronger effect = lower value. In outline:
as §1

Test [5] has as its target Phenylethanolamine N-methyltransferase (Homo sapiens) (UniProt P11086). The conditions noted are these: purified enzyme, MTase-Glo SAH luminescence; measured here: PNMT inhibition; at 40 µM; stronger effect = lower value. In outline:
as §1
% is set by controls: 0 for no effect and ±100 for the full control effect.

With `O=C(NC[C@H]1OC[C@@H](NC2CCC2)[C@@H]1O)N1CCOCC1`, the activity change, negative = inhibition in test [1] was -2.86%; in test [2], -4.8%; in test [3], -2.9%; in test [4] it was -5.89%; in test [5], -2.52%.
For `Cn1ncc2c(NCCc3nnc(N)s3)nc(-c3ccncc3)nc21`, in that order: -27.3%, -5.85%, -9.64%, -18.7% and -9.81%.
Turning to `C[C@@H]1O[C@@H](O[C@H]2[C@H](O[C@H]3[C@H](O[C@H]4CC[C@@]5(C)C(CC[C@]6(C)C5CC=C5[C@@H]7CC(C)(C)CC[C@]7(C(=O)O[C@@H]7O[C@H](CO)[C@@H](O[C@@H]8O[C@@H](C)[C@H](O)[C@@H](O)[C@H]8O)[C@H](O)[C@H]7O)CC[C@]56C)C4(C)C)OC[C@H](O)[C@@H]3O)O[C@H](CO)[C@@H](O)[C@@H]2O)[C@H](O)[C@H](O)[C@H]1O` (stereo not given in full), the activity change, negative = inhibition in test [1] was 1.12%; in test [2] it was 12.5%; in test [3] it was 9.18%; in test [4] it was -0.431%; in test [5] it was 8.43%.
For `Fc1ccc2nc(CCC#Cc3ccccn3)cn2c1`, in that order: -2.52%, -4.17%, 5.71%, -16.6% and -0.484%.
For `CC(=O)N[C@@H]1CN(C(=O)CCc2c[nH]c3ccccc23)C[C@H]1CO`, in that order: -2.4%, -5.43%, -1.17%, -2.33% and -2.5%.
In the case of `CC(=O)Nc1ccc(N2C(=O)c3ccc(-c4ccco4)n3CC2(C)C(=O)NCc2ccccc2)cc1` (stereo not given), the activity change, negative = inhibition in test [1] is -10.2%; in test [2], 0.921%; in test [3], 10.9%; in test [4], 16.1%; in test [5], 5.71%.
On the same counts, the results for `CCCn1c(=O)c2ccc(C(=O)NC(C)C)cc2n2c(=O)n(Cc3cc(C)ccc3C)nc12` are 5.48%, 0%, 5.75%, 4.74% and 7.43%.
On the same counts, the results for `CCCn1c(=O)c2ccc(C(=O)NCC(C)C)cc2n2c(=O)n(Cc3ccc(F)cc3Cl)nc12` are -1.06%, 4.52%, 2.73%, -2.21% and 3.23%.
Consider `C=C(C(=O)O)[C@@H]1CC=C(CCC(C)=O)[C@@H](C)CC1`, for which the activity change, negative = inhibition in test [1] is -2.12%; in test [2], -10.8%; in test [3], 1.12%; in test [4], -17.8%; in test [5], -1.12%.
For `CC1(C(=O)NCc2ccc(F)cc2)Cn2c(nc3ccccc32)C(=O)N1Cc1ccc(Cl)cc1` (stereo not given), in that order: 6.93%, 0.091%, 7.1%, 8.78% and 3.09%.
Consider `Cc1ccc(CN2C(=O)c3ccc(-c4ccco4)n3CC2(C)C(=O)NCc2ccccc2)cc1` (stereo not given), for which the activity change, negative = inhibition in test [1] was -5.37%; in test [2] it was 4.38%; in test [3], -0.932%; in test [4], 0.463%; in test [5] it was -2.69%.
For the compound `CC(C)=CCc1cc(C(O)C2NC(=O)CNC(=O)C(Cc3c[nH]c4ccccc34)NC(=O)C3CCCN3C(=O)CNC(=O)C(C(C)C)NC(=O)CNC2=O)ccc1O` (stereo not given) (cyclo(G[X5]GVGPW); configuration not given here), the activity change, negative = inhibition is -3.07% in test [1]; -0.875% in test [2]; 5.17% in test [3]; -16.8% in test [4]; -10.7% in test [5].
For the compound `CC(C)CNC(=O)c1ccc2c(=O)n(C(C)C)c3nn(CC(=O)NC4CCCC4)c(=O)n3c2c1`, the activity change, negative = inhibition is 3.11% in test [1]; 0% in test [2]; 6.12% in test [3]; 0.53% in test [4]; 2.08% in test [5].
On the same counts, the results for `CN1CCNC(=O)C1CC(=O)O` (stereo not given) are -3.5%, -1.2%, -0.25%, -2.26% and -0.219%.
On the same counts, the results for `CCCn1c(=O)c2cc(Cl)ccc2n2c(SCc3ccc(F)cc3)nnc12` are -13.5%, 4.69%, 2.42%, -9.32% and 0.808%.
For the compound `CC1CCC2C(C(=O)O)=CC3CC(C)(C)CC132` (stereo not given), the activity change, negative = inhibition was 4.1% in test [1]; 8.53% in test [2]; 4.94% in test [3]; -16.5% in test [4]; 2.79% in test [5].
For `COc1cccc(CNC(=O)c2cc3n(n2)CC(C)(C(=O)NCCC(C)C)N(C)C3=O)c1OC` (stereo not given), in that order: 8.52%, 0%, 10.4%, 0.359% and 7.45%.
In the case of `COc1ccc(CN2CCN(C3CCN(c4ccccc4)CC3)CC2CCO)cc1C` (stereo not given), the activity change, negative = inhibition in test [1] is -6.34%; in test [2] it was -5.16%; in test [3] it was -7.32%; in test [4], -10.3%; in test [5], -13.7%.
In the case of `CC[C@H](/C=C/[C@@H](C)[C@H]1CC[C@H]2[C@@H]3CC=C4C[C@@H](O)CC[C@]4(C)[C@H]3CC[C@]12C)C(C)C`, the activity change, negative = inhibition was 7.58% in test [1]; 4.08% in test [2]; 8.7% in test [3]; -9.24% in test [4]; 3.39% in test [5].
For `Cc1onc(-c2cnn(C)c2NCc2ccc(C#N)cc2)c1C(=O)N1CCCC1`, in that order: -6.86%, -8.64%, -2.33%, -14.3% and -9.44%.
For `CC(C)n1c(=O)c(C(=O)NC2CC3CCC(C2)N3C[C@@H](O)CN(C)S(C)(=O)=O)cc2ccccc21` (stereo not given in full), in that order: -2.99%, -6.44%, -0.462%, -21.6% and -5.45%.
Consider `C/C=C/C(O)C1OC(=O)CC1Nc1ccc(C(=O)O)cc1` (stereo not given), for which the activity change, negative = inhibition in test [1] was -0.13%; in test [2], -2.1%; in test [3], 11%; in test [4], -13.7%; in test [5] it was -10.8%.
As for `CCCSCCCN1C(=O)c2cc3occc3n2CC1(C)C(=O)NC1CCC(C)CC1` (stereo not given), the activity change, negative = inhibition in test [1] was -3.6%; in test [2] it was 6.81%; in test [3] it was 1.01%; in test [4] it was -0.565%; in test [5] it was -2.03%.
`Cc1ccc(CN2CCCn3nc(C(=O)NCCc4cccs4)cc3C2=O)cc1`: the activity change, negative = inhibition in test [1] is -8.62%; in test [2] it was 0%; in test [3], -2.35%; in test [4], -5.97%; in test [5] it was -1.68%.
For `O=S(=O)(c1ccccc1F)N1CCC(CCc2nc(C3CCOCC3)no2)CC1`, in that order: -6.04%, -2.83%, -1.59%, -8.38% and -11.6%.
Take `c1ccc(-c2ncc(CN3CCN(c4ncccn4)CC3)[nH]2)cc1`: the activity change, negative = inhibition in test [1] is -4.49%; in test [2], -1.05%; in test [3] it was 5.32%; in test [4] it was -15.6%; in test [5] it was 1.5%.
`NS(=O)(=O)Nc1ncnc(OCCOc2ncc(Br)cn2)c1-c1ccc(Br)cc1`: the activity change, negative = inhibition in test [1] was -23.4%; in test [2], -16.1%; in test [3], -26.6%; in test [4] it was -46.3%; in test [5], -32.6%.
For `CCCS(=O)(=O)N1CCCC(c2[nH]ccc2C(N)=O)C1` (stereo not given), the activity change, negative = inhibition in test [1] was -2.75%; in test [2], -2.8%; in test [3], -0.274%; in test [4], -7.83%; in test [5] it was -5.95%.
For the compound `O=C(NC[C@H]1CN(c2ccc(N3CCOCC3=O)cc2)C(=O)O1)c1ccc(Cl)s1`, the activity change, negative = inhibition in test [1] is -2.26%; in test [2] it was -1.18%; in test [3], 7.26%; in test [4], -14.5%; in test [5] it was 1.68%.
